According to patent US10266544B2, “Aryl substituted aminomethyl spectinomycin analogs as antibacterial agents” (ST. JUDE CHILDREN'S RESEARCH HOSPITAL, INC., priority 2013, dated 2019):

Biological target: purified Mycobacterium smegmatis 70S bacterial ribosomes (Mycolicibacterium smegmatis, UniProt A0QSG6)
Experiment: biochemical
Procedure: Aryl substituted aminomethyl spectinomycin analogs were synthesized as described above. Ribosomal inhibition (IC50) was determined in the ribosomal inhibition assay as described above and the data are shown in Table 2. The compound number corresponds to the compound numbers used in Table 1.
3′-Methylene aryl substituted aminomethyl spectinomycin analogs were evaluated for potency as ribosomal inhibitors using purified mycobacterial ribosomes, as described previously (Salian, et al. Antimicrob Agents Chemother. 2011 56(12), 6104-6108). […] Without wishing to be bound by a particular theory, the meta position appeared to be less preferred for substitution than para position. Adding a trifluoromethoxy (10) decreased binding by 10-fold. […] Without wishing to be bound by a particular theory, introduction of a nitrogen to the ortho (16) and meta (7) position of non-substituted aryl analog 1 was favorable, decreasing IC50's to 0.4 μg/mL in each case.

Sequence of purified Mycobacterium smegmatis 70S bacterial ribosomes (A0QSG6 whole entry): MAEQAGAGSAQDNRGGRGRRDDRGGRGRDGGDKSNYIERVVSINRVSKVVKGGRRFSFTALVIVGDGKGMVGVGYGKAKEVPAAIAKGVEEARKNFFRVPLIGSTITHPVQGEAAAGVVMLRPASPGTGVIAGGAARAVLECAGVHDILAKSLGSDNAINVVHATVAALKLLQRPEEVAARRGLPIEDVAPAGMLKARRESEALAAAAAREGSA

| Structure (SMILES) | pIC50 (IC50) | pIC50 (IC50 (Sm)) |
| --- | --- | --- |
| CN[C@@H]1[C@H](O)[C@H](NC)[C@H]2O[C@]3(O)[C@H](O[C@@H]2[C@H]1O)O[C@H](C)C[C@@]3(O)CNCCc1ccc(OC)cc1 [compound 53, 3′-(R)-3′-[(4-methoxy)phenethylaminomethyl]dihydrospectinomycin Trihydrochloride] | 5.79 | 5.79 |
| CN[C@@H]1[C@H](O)[C@H](NC)[C@H]2O[C@]3(O)[C@H](O[C@@H]2[C@H]1O)O[C@H](C)C[C@@]3(O)CNCCc1ccc(Cl)cc1 [compound 54, 3′-(R)-3′-[(4-chloro)phenethylaminomethyl]dihydrospectinomycin Trihydrobromide] | 5.23 | 5.23 |
| CN[C@@H]1[C@H](O)[C@H](NC)[C@H]2O[C@]3(O)[C@H](O[C@@H]2[C@H]1O)O[C@H](C)C[C@@]3(O)CNCCc1ccc(C)c(C)c1 [compound 55, 3′-(R)-3′-[(3,4-dimethyl)phenethylaminomethyl]dihydrospectinomycin Trihydrochloride] | 5.36 | 5.36 |
| CN[C@@H]1[C@H](O)[C@H](NC)[C@H]2O[C@]3(O)[C@H](O[C@@H]2[C@H]1O)O[C@H](C)C[C@@]3(O)CNCc1ccccc1Cl [compound 56, 3′-(R)-3′-[(2-chloro)benzylaminomethyl]dihydrospectinomycin Trihydrobromide] | 4.36 | 4.36 |

pIC50: −log10 of the molar value. Counter-ions that a name gives are not always drawn.
